# The campaign covered roughly 44,000 compounds. About 340 (0.77%) were called active. About 5% were inconclusive and are not listed. Calls follow the shape of the dose curve; as a rule, active = well fitted inhibition curve with a large enough effect; inconclusive = small, poorly fitted or top-dose-only effect; inactive = flat fitted curve, though single readings scatter. The list shows a part of the results.
# Experiment: Acumen qHTS Assay for Inhibitors of the mTORC1 Signaling Pathway in MEF (Tsc2-/-, p53-/-) Cells: Sytravon; also: nearly all actives have a fitted effect of over 50% in size
# Conditions: phospho-rpS6 immunofluorescence/PI, 24 h; series mostly up to 38.3 µM; activity change, negative = inhibition: at the top concentration
# Text: NIH Molecular Libraries Probe Production Centers Network [MLPCN] NIH Chemical Genomics Center [NCGC] MLPCN Grant: NS059428-01 Assay Submitter (PI): Blenis, John; Hoffman, Greg; Harvard University NCGC Assay Overview: The mammalian target of rapamycin (mTOR) is an intracellular serine/threonine kinase Aberrant regulation of mTOR signaling plays a causative role in a number of human diseases, including cancer, benign tumors such as lymphangioleiomyomatosis (LAM) and Tuberous Sclerosis Complex (TSC), and metabolic diseases such as diabetes and obesity. This project aims to identify inhibitors of ribosomal protein S6 (rpS6) phosphorylation. The phosphorylation of rpS6 is a key event downstream of mTOR activation. The assay uses a phospho-specific antibody of phospho-rpS6 to detect inhibitors of mTOR activation. Mutations in the Tsc1 and Tsc2 genes are the underlying genetic lesions responsible for TSC, causing constitutive activation of the mTORC1 pathway and leading to profound effects on cell metabolism. Aberrant metabolism in cancer has recently received significant attention as a target to develop therapeutic agents in the treatment of cancer.1 As Tsc2-/- cells have lost the ability to respond to energy and growth factor deprivation, these cells are unable to properly down regulate cellular biosynthetic processes in response to metabolic stress, and are thus extremely sensitive to glucose deprivation-induced death.2 A central goal of this project is to explore the unique cell survival and metabolic properties of cells with Tsc1 or Tsc2 by screening for compounds that selectively target the Tsc2-/- MEFs by screening both Tsc2-/- and WT MEF cell lines. We hope to better understand these aspects of TSC physiology in order to exploit them for therapeutic benefit.
# NCGC Acumen Assay Protocol Summary: For quantitative high throughput analysis of mTORC1 signaling, we developed a cell-based assay for immuno-fluorescence based detection of rpS6 phosphorylation on the Acumen Explorer that will be used a platform for the primary small molecule screen. Mouse embryonic fibroblasts (MEFs) are cultured in 1536-well plates using DMEM + 10% FBS. Twenty-four hrs after plating, test compounds (solubilized in DMSO) are delivered and incubated with the cells for 24 hrs at 37 degree Celsius. Following the incubation, media with compound is aspirated and the cells are fixed in 4% paraformaldehyde (PFA) containing PBS + 0.2% TX-100. Next, PFA is aspirated, cells are washed two times with PBS plus 0.2% TX-100 and the cells are blocked for 1 hr at room temperature (blocking buffer: LiCOR Blocking Buffer plus 0.2% TX-100). […] Cells are washed two times with PBS plus 0.2% TX-100, and stained with 10 uM propidium iodide (PI) for 20-25 minutes for cell number measurement (1:500 dilution of Hoescht staining is also added for IN Cell imaging). The plates are scanned on the Acumen Explorer laser scanning instrument (TTP Labtech) using the 488nm laser for simultaneous excitation of the Alexa-488 and PI. […] The normalized phospho-S6 staining is calculated as the ratio of the integrated Alexa 488 intensity divided by the integrated PI intensity for the single concentration rapamycin control (7.5 nM) and DMSO columns. […] Inhibition of the pathway is defined based on the normalized phospho-S6 intensity in rapamycin treated cells. Active cells are defined as those with a normalized phospho-S6 staining above this threshold, and each treatment is reported as the % positive cells in the well, where thresholds are defined by selecting wells with the highest and lowest signal and differentiating between the % non-active and % active populations. In addition to the pathway specific phospho-S6 endpoint, the number of PI stained cells from the Acumen is recorded as a measure of cell viability. The primary screen was performed with a MEF cell line in a defined genetic background, Tsc2-/-, p53-/- cell line stably transfected with an empty vector control (Tsc2-/- MEF).
row,SMILES,"activity change, negative = inhibition"
1,COc1cc(-c2noc(-c3ccc(N4CCCCC4)c([N+](=O)[O-])c3)n2)cc(OC)c1OC,inactive: -1.28%
2,CCOCCc1nn2c(=O)cc(COC(=O)c3ccco3)nc2s1,inactive: 1.77%
3,O=C(Nc1ccc2oc(-c3cc(Br)ccc3Cl)nc2c1)c1ccc2ccccc2c1,inactive: -13.6%
4,COc1cccc(CNC(=O)c2nnc(Cc3ccc(Cl)cc3)o2)c1,inactive: -14.1%
5,O=C(CSc1ccc(-c2cccs2)nn1)Nc1cccc(F)c1,inactive: -15.4%
6,CCN1CCN(CCCNC(=O)c2ccc3c(c2)sc2nc(-c4ccc(C)cc4)cn23)CC1,inactive: 8.96%
7,COc1ccc(-c2cc(C)no2)cc1S(=O)(=O)N1CC(C)Oc2ccccc21 (stereo not drawn),inactive: 0%
8,COc1ccccc1N1CCN(c2ncnc3onc(C)c23)CC1,inactive: -3.73%
9,CCCn1c(=O)c2sccc2n2c(CCCC(=O)Nc3ccccc3F)nnc12,inactive: 2.61%
10,CN(C(=O)c1oc(=O)c2ccccc2c1-c1ccccc1)c1cccc(Cl)c1,inactive: -12.8%
11,COc1ccc(-n2c(SCC(=O)NCc3ccccc3)nc3n[nH]c(C)c3c2=N)cc1,inactive: -7.43%
12,COc1cccc(N2CCN(C(=O)Cn3ncc4c(=O)oc5ccccc5c43)CC2)c1,inactive: -13.3%
13,O=C1CC(c2cccc(F)c2)c2c(n3ncnc3[nH]c2=O)N1 (stereo not drawn),inactive: -2.3%
14,COc1ccc(-n2nc(C(=O)N3CCN(c4cccc(C(F)(F)F)c4)CC3)c3c4ccccc4n(C)c3c2=O)cc1Cl,inactive: 0.381%
15,CCOc1ccc(CCNC(=O)Cc2ccc(NC(=O)N3CCSc4ncccc43)cc2)cc1,inactive: 0%
16,Cc1cccc(-c2noc(-c3cc(-c4ccc(F)cc4)n[nH]3)n2)c1,inactive: -1.49%
17,COc1cccc(N2CCN(C(=O)Cn3ncc4c5ccccc5n(C)c4c3=O)CC2)c1,inactive: -2.78%
18,Cc1oc2ncn(C)c(=O)c2c1C(=O)NCc1ccccc1,inactive: 2.31%
19,COc1cc(OC)cc(C(=O)Nc2nc(-c3nnn(-c4ccc(F)c(Cl)c4)c3C)ns2)c1,inactive: -12.7%
20,O=C(CSc1nc(-c2ccco2)nc2cc(=O)[nH]n12)Nc1ccccc1F,inactive: 6.19%
21,COc1ccc2cc3cc(C(=O)Nc4ccccc4C)oc3nc2c1,inactive: 1.64%
22,COc1ccc(NC(=O)CSc2nc(C)cc(C)c2C(=O)Nc2cccc(C)c2)cc1,inactive: 2.53%
23,COc1cccc(C(=O)Nc2ccccc2-c2nnc(-c3ccc(C(C)(C)C)cc3)o2)c1,inactive: 0.357%
24,Cc1ccc(NC(=O)Nc2ccc3nc(N4CCN(C)CC4)cc(C)c3c2)cc1C,inactive: 2.68%

row,SMILES,"activity change, negative = inhibition"
1,C[C@@H](NC(=O)CN(c1ccccc1)S(=O)(=O)N(C)C)c1ccccc1,inactive: -5.14%
2,CCCOC(=O)c1ccc(Nc2nc3ccccc3nc2-n2nc(C)cc2C)cc1,inactive: 0.86%
3,CCN1CCN(C(=O)c2ccc3c(c2)N(Cc2ccccc2F)C(=O)c2ccccc2S3(=O)=O)CC1,inactive: 0.0935%
4,Cc1ccccc1NC(=O)c1ccc(F)c(S(=O)(=O)NC2CCCC2)c1,inactive: 6.52%
5,Cc1ccc(N2CCN(C(=O)c3c(C)oc4nc(C)nc(N5CCCC5)c34)CC2)c(C)c1,inactive: 3.42%
6,COc1cc(NS(=O)(=O)c2ccc(NC(=O)c3ccc(C(C)=O)cc3)cc2)nc(OC)n1,inactive: -2.2%
7,CCOC(=O)c1cccc(NC(=O)N2CC(CC)Oc3ccccc32)c1 (stereo not drawn),inactive: 10.5%
8,Cc1cccc(-n2ncc(C(=O)NCc3ccco3)c2C2CCN(C(=O)OC(C)(C)C)CC2)c1,inactive: 6.54%
9,Cc1nc2cccnc2n1C1CCN(S(=O)(=O)c2ccc(C(C)C)cc2)CC1,inactive: -23.3%
10,O=C(CSc1ncc2c(n1)-c1ccccc1N(Cc1ccc(F)cc1)S2(=O)=O)NCc1ccccc1,inactive: 12%
11,Cc1cccc(CNC(=O)CCCN2C(=O)COc3ccc(C)cc32)c1,inactive: -5.39%
12,CCn1c(=O)c2cc(C(=O)N(C)c3cc(Cl)c(OC)cc3OC)sc2c2ccccc21,inactive: -10.5%
13,O=C(Nc1ccc(Br)cc1)c1ccc(Br)c(S(=O)(=O)N2CCCCC2)c1,inactive: -5.16%
14,Cc1cn2c(=O)cc(COC(=O)c3cccc(NC(=O)COc4ccc(Cl)cc4)c3)nc2s1,inactive: 0%
15,COC(=O)c1c(NC(=O)COc2ccccc2Cl)sc2c1CCC(C(C)(C)C)C2 (stereo not drawn),inactive: 5.44%
16,Cc1ccc(CCNC(=O)c2cc3sccc3n2Cc2ccc(F)cc2)cc1,inactive: -1.97%
17,Cc1ccc(C(=O)c2cn(Cc3ccccc3F)c3cc4c(cc3c2=O)OCO4)cc1,inactive: 0.611%
18,COC(=O)c1ccc(Cl)cc1NC(=O)N1CCC(CN2CCCC2)CC1,inactive: -1.66%
19,N#C/C(=C\c1ccc(Br)cc1)c1nc(-c2cc3cc(Br)ccc3oc2=O)cs1,inactive: -0.387%
20,COc1cc(/C=C(\C#N)c2nc3ccc(C)cc3[nH]2)ccc1OC(C)C,inactive: -4.15%
21,CCc1ccc(S(=O)(=O)c2c[nH]c3cc(OC)c(OC)cc3c2=O)cc1,inactive: -15.8%
22,COc1ccc2cc3cc(C(=O)NCCc4ccccc4)sc3nc2c1Cl,inactive: -1.24%
23,CCc1ccccc1N(C)S(=O)(=O)c1ccc2[nH]cc(C(=O)NCCOC)c(=O)c2c1,inactive: 0.26%
24,COc1cccc(NC(=O)C(=O)NCC(c2ccc3c(c2)OCO3)N2CCOCC2)c1 (stereo not drawn),inactive: -0.31%

# Source: PubChem BioAssay AID493208 (National Center for Advancing Translational Sciences (NCATS), 2011)
